According to paper PMC4336329 (PLoS ONE, 2015):
Hit rate of the full screen: of about 310,000 compounds, about 14,000 (4.5%) showed an effect of 50% or more. The effect is printed as a negative number. The list shows a part of the results.

biological target: human ether-à-go-go-related gene (hERG) potassium channel (human, UniProt Q12809); assay: primary screen, population patch clamp on CHO cells stably expressing hERG
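Further: peak tail current of the secondary pulse compared with the same well before compound.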

human ether-à-go-go-related gene (hERG) potassium channel, sequence (Q12809 whole entry, looked up): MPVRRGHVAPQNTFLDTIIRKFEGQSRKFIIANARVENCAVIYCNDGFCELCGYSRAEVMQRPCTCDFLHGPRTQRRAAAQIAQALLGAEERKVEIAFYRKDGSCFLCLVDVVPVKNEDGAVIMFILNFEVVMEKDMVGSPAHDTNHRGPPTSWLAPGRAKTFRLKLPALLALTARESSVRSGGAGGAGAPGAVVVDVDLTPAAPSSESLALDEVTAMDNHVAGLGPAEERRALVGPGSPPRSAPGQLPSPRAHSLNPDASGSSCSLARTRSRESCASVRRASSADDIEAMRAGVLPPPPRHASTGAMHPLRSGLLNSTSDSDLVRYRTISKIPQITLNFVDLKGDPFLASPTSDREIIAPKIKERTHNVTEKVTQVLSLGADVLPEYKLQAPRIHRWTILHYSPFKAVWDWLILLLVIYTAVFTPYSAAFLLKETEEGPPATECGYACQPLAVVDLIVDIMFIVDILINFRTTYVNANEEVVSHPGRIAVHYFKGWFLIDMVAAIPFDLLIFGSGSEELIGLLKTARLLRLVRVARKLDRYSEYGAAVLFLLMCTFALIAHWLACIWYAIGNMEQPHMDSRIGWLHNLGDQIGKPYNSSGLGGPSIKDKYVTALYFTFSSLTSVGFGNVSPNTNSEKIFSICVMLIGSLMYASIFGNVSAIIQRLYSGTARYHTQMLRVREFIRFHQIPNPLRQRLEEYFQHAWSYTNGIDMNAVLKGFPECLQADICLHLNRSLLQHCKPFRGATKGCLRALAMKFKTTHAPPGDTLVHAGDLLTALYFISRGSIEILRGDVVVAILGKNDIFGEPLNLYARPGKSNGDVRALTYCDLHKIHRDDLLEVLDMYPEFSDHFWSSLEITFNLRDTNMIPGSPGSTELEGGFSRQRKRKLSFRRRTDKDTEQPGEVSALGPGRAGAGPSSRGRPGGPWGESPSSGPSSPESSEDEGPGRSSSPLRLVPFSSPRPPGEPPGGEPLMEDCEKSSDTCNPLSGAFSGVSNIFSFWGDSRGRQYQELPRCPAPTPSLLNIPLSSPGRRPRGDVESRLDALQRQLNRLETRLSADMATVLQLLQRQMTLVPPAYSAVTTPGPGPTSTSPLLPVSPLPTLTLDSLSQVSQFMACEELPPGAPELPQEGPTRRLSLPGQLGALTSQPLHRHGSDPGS

Row | Structure (SMILES) | hERG current change (%, negative = inhibition) at 10uM [%]
1 | C=CCNC(=S)NNC(=O)COc1cccc(Cl)c1 | 4.69
2 | COc1ccc2nc(NC(=O)C3CCN(C(=O)c4ccc(F)cc4)CC3)sc2c1 | -0.23
3 | CCC(=O)Nc1cccc(C2=NOC3(C2)C[C@H](C(N)=O)N(C(=O)CC#N)C3)c1 (stereo partly drawn) | -0.286
4 | CCCCCn1nc(C(=O)N(CC(C)C)c2c(N)n(CCCC)c(=O)[nH]c2=O)c2ccccc2c1=O | -76.6
5 | COc1ccccc1CNC(=O)COC(=O)c1sc(C)nc1C | -10.2
6 | CC1CCN(S(=O)(=O)c2ccc(NC(=O)[C@@H]3CCCN3C(=O)c3cccs3)cc2)CC1 | -15.4
7 | COCCN1C=C(C(=O)OC)C(c2ccc(OC)c(OC)c2)C(C(=O)OC)=C1 | -9.39
8 | CCC(C)c1ccc(NC(=O)c2cnn3c(C(F)F)cc(C)nc23)cc1 (stereo not drawn) | 0.56
9 | Cc1ccc(-c2ccc(C(=O)NCc3ccccc3)o2)c2ccccc12 | 2.23
10 | COC(=O)c1cc2occc2n1Cc1nc(-c2cccc(Cl)c2)oc1C | 12.6
11 | Cc1nc2cc(NC(=O)N3CCCC3)ccc2n1C | -1.21
12 | COc1ccc(C(CNC(=O)COc2ccccc2)N2CCOCC2)cc1 (stereo not drawn) | 5.9
13 | Cn1cnnc1SCC(=O)Nc1cccc(S(=O)(=O)N2CCCCCC2)c1 | -17.4
14 | O=C(/C=N/O)NCCN1CCCCC1 | 11.5
15 | O=C(Cn1c(CO)nc2ccccc21)Nc1cc(C(F)(F)F)ccc1N1CCOCC1 | 1.37
16 | CC(Oc1cccc2ccccc12)C(=O)N/N=C/c1cccnc1 (stereo not drawn) | -14.9
17 | CNC(=O)CC(C(=O)O)c1ccc(OC(C)C)cc1 (stereo not drawn) | -1.5
18 | O=C(O)CCCCCCCCc1cn(CC2CCCCC2)nn1 | 7.45
19 | CN=c1sc(C(=O)Nc2ccccc2)c(C)n1C | 8.4
20 | C=CCNC(=S)NNC(=O)C(CCCC)CC(O)COCC(C)C (stereo not drawn) | -0.671
21 | CCn1ccnc1CN(C)C(=O)C1CCC(=O)N(Cc2cccc(C(F)(F)F)c2)C1 (stereo not drawn) | -22.8
22 | COc1ccc(C(=O)OCC(=O)c2ccc(C3CCCCC3)cc2)cc1 | 5.66
23 | COc1ccc(CCNC(=O)c2ccc(NS(=O)(=O)c3ccc4[nH]c(=O)[nH]c4c3)cc2)cc1OC | 11.7

Row | Structure (SMILES) | hERG current change (%, negative = inhibition) at 10uM [%]
24 | O=C(C1CCCN(S(=O)(=O)c2cccc3nonc23)C1)N1CCN(c2cccc(Cl)c2)CC1 (stereo not drawn) | -8.39
25 | O=C1NC(=O)C(CCc2ccncc2)(Cc2cccc(Cl)c2Cl)C(=O)N1c1ccc(Br)cc1 (stereo not drawn) | -11
26 | CS(=O)(=O)N(CC(=O)NCc1ccccc1)c1ccc(Cl)cc1 | 7.66
27 | CCOC(=O)c1nn(-c2ccc(Br)cc2)cc1C(=O)c1cccc2ccccc12 | 14.8
28 | CCOC(=O)[C@H]1[C@H]2COc3ccc(Cl)cc3[C@@H]2N2C(=O)c3cc(Cl)ccc3NC(=O)[C@@]12C | 3.59
29 | CC(C)c1ccc(CNc2nnnn2C)cc1 | -0.457
30 | CCn1c(NC(=O)c2ccccc2)nc2ccccc21 | 4.47
31 | Cc1ccc2c(c1)c(C)c(C)n2CC(O)CN1CCOCC1.Cl (stereo not drawn) | 0.437
32 | CC(=N)c1c(O)c2ccccc2oc1=O | 10.5
33 | CCN1CCN(C(=O)C2CCCN(c3ncnc4c3nc3n4CCCCC3)C2)CC1 (stereo not drawn) | 11.6
34 | Cc1nnc(SCc2c(Cl)cccc2[N+](=O)[O-])s1 | -12.1
35 | Cc1sc2ncnc(N3CCC(C(=O)Nc4nc5ccc(Cl)cc5s4)CC3)c2c1C | 9.56
36 | COC(=O)CSc1nc(-c2ccccc2)nc2ccc(F)cc12 | -4.63
37 | Cc1ccc(O)c(C2=Nc3ccccc3N=C(c3cccc([N+](=O)[O-])c3)C2)c1 | 20.9
38 | COc1ccc(C(=O)NC(=S)NNC(=O)COc2ccccc2)cc1 | -2.47
39 | O=C(CN1C(=O)S/C(=C/c2cc(Br)cs2)C1=O)N1CCOCC1 | -40.8
40 | CC(C)COC(=O)NCCOC(=O)Nc1cccc(Cl)c1 | -4.46
41 | O=C(CCc1nc2ccccc2s1)OCC(=O)c1ccc[nH]1 | -1.38
42 | Cc1noc(C)c1COc1ccccc1C(=O)N(C)CC(=O)Nc1ccc(F)c(F)c1F | -32.8
43 | CN1CCN(C(=O)CCn2nc(-c3ccccc3)c3ccccc3c2=O)CC1 | -20.5
44 | O=C1CC(c2ccccc2Cl)CC(O)=C1C=Nc1ccccc1 (stereo not drawn) | 0.512
45 | Cc1nc2ccc(NC(=O)c3nn(C(C)C)c(=O)c4ccccc34)cc2s1 | 1.85
